# The whole screen tested about 310,000 compounds, of which about 2,200 (0.71%) showed an effect of 50% or more. The effect is printed as a negative number. The list shows a part of the results.
# Molecular target: human ether-à-go-go-related gene (hERG) potassium channel (human, UniProt Q12809)
# Assay: primary screen, population patch clamp on CHO cells stably expressing hERG
# Sequence of human ether-à-go-go-related gene (hERG) potassium channel (Q12809 whole entry, looked up): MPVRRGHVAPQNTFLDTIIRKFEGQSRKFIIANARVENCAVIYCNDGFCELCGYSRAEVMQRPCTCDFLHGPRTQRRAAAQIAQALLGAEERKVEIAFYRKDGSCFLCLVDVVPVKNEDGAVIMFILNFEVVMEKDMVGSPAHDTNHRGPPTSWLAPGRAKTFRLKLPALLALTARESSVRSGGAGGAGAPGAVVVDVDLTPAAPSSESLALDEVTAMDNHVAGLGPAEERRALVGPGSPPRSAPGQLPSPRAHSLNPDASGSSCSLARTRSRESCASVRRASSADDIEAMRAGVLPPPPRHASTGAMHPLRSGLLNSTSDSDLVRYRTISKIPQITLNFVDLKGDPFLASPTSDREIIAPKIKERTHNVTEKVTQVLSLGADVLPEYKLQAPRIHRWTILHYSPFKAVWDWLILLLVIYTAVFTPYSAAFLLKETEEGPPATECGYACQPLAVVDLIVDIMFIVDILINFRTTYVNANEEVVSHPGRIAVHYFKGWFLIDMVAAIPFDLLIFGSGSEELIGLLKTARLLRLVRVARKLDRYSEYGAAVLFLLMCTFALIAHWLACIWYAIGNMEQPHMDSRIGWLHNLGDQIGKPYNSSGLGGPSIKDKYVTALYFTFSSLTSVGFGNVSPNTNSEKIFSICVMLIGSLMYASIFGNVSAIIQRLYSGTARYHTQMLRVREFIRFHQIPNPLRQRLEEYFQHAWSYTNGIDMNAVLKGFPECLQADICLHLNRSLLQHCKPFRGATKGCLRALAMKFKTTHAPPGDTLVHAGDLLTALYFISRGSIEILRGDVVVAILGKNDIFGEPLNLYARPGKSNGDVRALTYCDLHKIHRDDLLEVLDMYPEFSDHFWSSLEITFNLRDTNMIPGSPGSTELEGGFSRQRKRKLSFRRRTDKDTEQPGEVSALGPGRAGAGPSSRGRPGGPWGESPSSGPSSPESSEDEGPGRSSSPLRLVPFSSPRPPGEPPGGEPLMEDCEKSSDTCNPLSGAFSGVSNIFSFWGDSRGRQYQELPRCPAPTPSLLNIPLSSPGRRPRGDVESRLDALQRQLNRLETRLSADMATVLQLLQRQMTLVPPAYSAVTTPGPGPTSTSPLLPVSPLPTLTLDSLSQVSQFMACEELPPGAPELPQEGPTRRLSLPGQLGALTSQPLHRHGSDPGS
row,Compound,"hERG current change (%, negative = inhibition) at 1uM [%]"
1,O=C(O)Cn1c(=O)c2c3c(sc2n(Cc2ccccc2)c1=O)CCCC3,13.9
2,N#C/C(=C1/CCCCCN1)c1nc2ccccc2[nH]1,8.18
3,CCOC(=O)/C(=N\Nc1ccccc1)S(=O)(=O)c1ccccc1,-2.31
4,Cc1cc(NC(=O)c2ccc3c(c2)OCCO3)ccc1NC(=O)c1ccco1,12.2
5,COC(=O)CSc1nnc(C)c(=O)[nH]1,2.75
6,c1ccc(C2Nc3cccc4cccc(c34)N2)cc1,14.3
7,COc1ccc(C(=O)N/N=C(\c2ccccc2)c2ccccn2)cc1,7.39
8,COc1cc(/C=N/NC(=O)[C@H](Cc2c[nH]c3ccccc23)NC(=O)OCC(C)C)cc([N+](=O)[O-])c1O,14
9,CCCCCCC(=O)N(O)C1CC(=O)N(c2ccccc2)C1=O (centres unmarked),25.2
10,COc1ccc(-c2n[nH]c(C)c2-c2ccc(OC)c(OC)c2)c(O)c1,-4.84
11,Cc1ccc(-n2nc(C)c3c(C)c(CCC(=O)NCC4CCCO4)c(=O)n(C)c32)cc1 (centres unmarked),11.4
12,CCOc1ccc(C(=O)Nc2ccc(N3CCN(C)CC3)cc2)cc1,-13.2
13,Br.CC(=O)NNc1nc(-c2ccccc2)cs1,15.6
14,CC(C)(C)c1ccc(C(=O)NCCNC(=O)c2ccco2)cc1,12.2
15,Oc1cccc(/C=N/N=C/c2cccc(O)c2O)c1O,7.33
16,COc1ccccc1C(c1nnnn1CCc1ccccc1)N1CCN(c2ccccc2)CC1 (centres unmarked),7.04
17,Cc1ccc(N2C(=O)NC(=O)/C(=C/c3ccc(OC(=O)c4cccs4)cc3)C2=O)cc1,3.68
18,C/C(CC(=O)Nc1cccc(Cl)c1C)=N\NC(=O)Cc1csc(N)n1,1.6
19,COc1ccc(/C(C)=N/Nc2ccc(C(=O)O)cc2)c(OC)c1.O=S(=O)(O)O,5.22
20,COCCN(C(=O)CC1CCCCC1)c1c(N)n(CC(C)C)c(=O)[nH]c1=O,14.2
21,O=c1c2ccccc2cnn1Cc1n[nH]c(=S)n1-c1ccc(Cl)cc1Cl,5.76
22,Cc1nc(-c2cccc(S(=O)(=O)N3CC(C)CC(C)C3)c2)cs1 (centres unmarked),14.7

row,Compound,"hERG current change (%, negative = inhibition) at 1uM [%]"
1,COc1ccc(C(=O)Nc2ccc(C(=O)NCC3CCCO3)cc2)c(OC)c1OC (centres unmarked),15.2
2,COC(=O)Nc1nnc(-c2ccccc2OC)s1,7.37
3,N=c1n(CC(=O)c2ccc(Br)cc2)c2ccccc2n1Cc1ccccc1.[Br-],14.3
4,O=C(COc1ccc(F)cc1)Nc1nc2c(s1)CCCC2,16.7
5,CSc1sc(C(=O)NN)c2c1C1(CCC2)SCCS1,9.09
6,C[C@@H]1C=C(C(=O)N2CCN(C)CC2)O[C@H](OCc2ccc(CO)cc2)C1,18.7
7,O=C(C(=O)N1CCCc2ccccc21)c1cn(CC(=O)N2CCOCC2)c2ccccc12,5.18
8,Cc1ccc(C(=O)NCC(C)(C)N2CCOCC2)s1,4.53
9,CN(C)/C=C1\Cc2ccccc2C1=O,10.6
10,O=C(NCc1ccco1)C(c1ccccc1)N(Cc1cccnc1)C(=O)Cn1nnc2ccccc21 (centres unmarked),1.5
11,Cc1ccc(S(=O)(=O)Nc2ccccc2C(=O)OC(C)C(=O)Nc2ccc3ccccc3c2)cc1[N+](=O)[O-] (centres unmarked),8.2
12,CCNc1c([N+](=O)[O-])ncn1C,-3.35
13,Cc1ccsc1/C=N/N1CCN(c2ccccc2)CC1,-2.26
14,COC(=O)c1ccncc1C(=O)Nc1ccc(Oc2ncc(C(F)(F)F)cc2Cl)cc1,9.32
15,C=CCn1c(=O)c(C(=O)Nc2cccnc2)c(O)c2ccccc21,-6.89
16,CCc1ccc(OCC2NCCc3cc(OC)c(OC)cc32)cc1 (centres unmarked),5.28
17,O=C(O)c1ccc(NC(=O)C(c2ccccc2)c2ccccc2)cc1,15.6
18,C=CCn1cc(C(=O)NCCOC)c(=O)c2cc(S(=O)(=O)N3CCCCCC3)ccc21,-9.03
19,O=C(CSCCN1C(=O)c2ccccc2C1=O)Nc1ccc2ccccc2c1,6.12
20,CCCCC(=O)Nc1ccccc1N1CCN(c2ccccc2)CC1,13.7
21,O=C(Nc1ccc2c(c1)C(=O)OC2)c1ccc(Cl)cc1,15.4
22,Cc1ccccc1C1CCCN(Cc2nc(CC3CC3)no2)C1 (centres unmarked),6.51

# — paper PMC4336329 (PLoS ONE, 2015)
